Measured values as given in PubChem BioAssay AID588855 (National Center for Advancing Translational Sciences (NCATS), 2011).
The campaign covered roughly 410,000 compounds. About 5,000 (1.2%) were called active. Inconclusive means that the source gave no clear call. Such entries were picked first, then a sample of the others. Calls follow the shape of the dose curve; as a rule, active = well fitted inhibition curve with a large enough effect; inconclusive = small, poorly fitted or top-dose-only effect; inactive = no such curve, though single readings can be large or run the other way. A potency beside an inconclusive call is a rough fit, not a confirmed value.

Assay: qHTS for Inhibitors of TGF-b; also: nearly all actives have a fitted effect of over 65% in size
Conditions: HepG2 CAGA-GFP TGF-b/SMAD3 reporter, GFP fluorescence, 18 h, TGF-beta stimulated, 500 pg/mL final; series mostly up to 46.1 µM
Outline: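 Inhibition of TGF-beta-driven CAGA-GFP reporter expression in HEPG2 cells is measured by cellular GFP fluorescence after 18 h stimulation with 500 pg/mL recombinant TGF-beta in 1% FBS medium at 37 degrees C.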
Potency is read from the fitted curve at half-maximal effect; tags tell the direction and shape of the fitted curve.

With `Cn1nc(C(=O)Nc2cccc(Cl)c2)cc1C(=O)Nc1cccc(Cl)c1` as the compound, how does the Potency read?
Its Potency is inconclusive: 12.6 µM [inhibitor, single point].

Which Potency does the source give for `COc1ccc2[nH]c(C)c(CCN(Cc3cccs3)C(=S)Nc3ccccc3)c2c1` here?
Its Potency is inconclusive: 35.5 µM [inhibitor, single point].

For `CC(=O)c1c(C)[nH]c(C(=O)COC(=O)CCCOc2ccccc2)c1C`, which Potency is on record?
Its Potency is “inactive”.

For `c1ccc(OCCOCCN2CCN(C(c3ccccc3)c3ccccc3)CC2)cc1`, which Potency is on record?
Its Potency is inconclusive: 17.8 µM [inhibitor, single point].

For `O=[N+]([O-])c1ccc(N=NN(CCO)CCO)cc1`, which Potency is on record?
The Potency was “inactive”.

For `COc1cc(NC(=S)N2c3ccccc3CC2C)cc(OC)c1` (configuration not stated), which Potency is on record?
Its Potency is inconclusive: 35.5 µM [inhibitor, single point].

Which Potency does the source give for `CCC(=O)Nc1cc(C(=O)O)ccc1Sc1ccc(Cl)cc1` here?
The Potency was “inactive”.

With `Cc1cc(C)c(OCC(=O)Nc2ccccc2N2CCOCC2)c(C)c1` as the compound, how does the Potency read?
The Potency was inconclusive: 22.4 µM [inhibitor, single point].

Which Potency does the source give for `CCOC(=O)Cc1cc(-c2ccc(O)cc2)nc2ccc3ccccc3c12` here?
Its Potency is inconclusive: 22.4 µM [inhibitor, single point].

For `N#C/C(=C\c1cccnc1)C(=O)NC1CCCCC1`, which Potency is on record?
The Potency was “inactive”.

With `COc1cc2c(cc1OC)CN(C(C)C(=O)Nc1ccc(NC(C)=O)cc1)CC2` (configuration not stated) as the compound, how does the Potency read?
Its Potency is inconclusive: 20 µM [inhibitor, single point].

For `CN(C(=O)c1cccc(NC(=O)Cc2ccc(NC(=O)C3CCCN(C(=O)C4CCCC4)C3)cc2)c1)C1CCC1` (configuration not stated), which Potency is on record?
The Potency was inconclusive: 1.12 µM [inhibitor, partial curve, poor fit].

With `COc1ccc(-c2ccc3c(c2)[C@@H]2C[C@H](N(C)S(=O)(=O)c4ccccc4)[C@H]([C@H](C)O)C(=O)N2CC3)cc1` as the compound, how does the Potency read?
Its Potency is inconclusive: 12.6 µM [inhibitor, partial curve, poor fit].

With `O=C(N/N=C/c1cccc([N+](=O)[O-])c1)c1cc(-c2ccccc2)nc2ccccc12` as the compound, how does the Potency read?
Its Potency is inconclusive: 12.6 µM [inhibitor, single point].

Which Potency does the source give for `Cc1ccc2c(c1)N(C(=O)CCC(=O)N1CCN(c3cccc(C)c3C)CC1)CCO2` here?
Its Potency is inconclusive: 35.5 µM [inhibitor, single point].

For `Cc1cc(N2CC(C)OC(C)C2)nc2ccccc12` (configuration not stated), which Potency is on record?
Its Potency is inconclusive: 8.91 µM [inhibitor, partial curve, poor fit].

For `CCCc1nn2c(=O)cc(COC(=O)c3ccc(NC(=O)COc4ccc(F)cc4)cc3)nc2s1`, which Potency is on record?
The Potency was “inactive”.

With `COc1ccc2cc(C(=O)N3CCN(c4ccccc4OC)CC3)[nH]c2c1` as the compound, how does the Potency read?
The Potency was inconclusive: 20 µM [inhibitor, partial curve, poor fit].

For `Cc1cc(S(=O)(=O)N2CCN(Cc3noc(CCC(=O)N4CCCCC4)n3)CC2)ccc1F`, which Potency is on record?
Its Potency is “inactive”.

For `COc1ccccc1/C=C/C(=O)NCC(=O)N/N=C(/C)c1ccc(Cl)cc1`, which Potency is on record?
The Potency was inconclusive: 12.6 µM [inhibitor, single point].

Which Potency does the source give for `Cc1ccc(-c2nc(CS(=O)CC(=O)NCc3ccc(Cl)cc3)c(C)o2)cc1` (configuration not stated) here?
The Potency was inconclusive: 22.4 µM [inhibitor, single point].

With `CC(CSc1nnnn1-c1ccccc1)Cn1c(N2CCN(C)CC2)nc2c1c(=O)[nH]c(=O)n2C` (configuration not stated) as the compound, how does the Potency read?
Its Potency is inconclusive: 5.62 µM [inhibitor, single point].

With `COC(=O)c1cc(S(=O)(=O)N2CCN(c3ccc([N+](=O)[O-])cc3)CC2)c[nH]1` as the compound, how does the Potency read?
The Potency was inconclusive: 11.2 µM [inhibitor, single point].

Which Potency does the source give for `CC1(C)N=C(N)NC(Nc2ccccc2Cl)=N1` here?
Its Potency is inconclusive: 1.12 µM [inhibitor, full curve, poor fit].

With `O=P(c1ccccc1)(c1ccccc1)c1ccc(O)cc1` as the compound, how does the Potency read?
The Potency was “inactive”.

For `Cc1c(C(=O)NCc2ccccn2)oc2ccc(Br)cc12`, which Potency is on record?
Its Potency is inconclusive: 35.5 µM [inhibitor, single point].

For `CCCN(Cc1ccccc1)C(=S)Nc1cccc(C(F)(F)F)c1`, which Potency is on record?
Its Potency is inconclusive: 35.5 µM [inhibitor, single point].

Which Potency does the source give for `CN(C)CCCN(C(=O)C1=COCCO1)c1nc2ccc(Br)cc2s1` here?
The Potency was inconclusive: 31.6 µM [inhibitor, single point].

For `CC(C)c1ccc(S(=O)(=O)N2CCC(n3c(C(F)(F)F)nc4cccnc43)CC2)cc1`, which Potency is on record?
Its Potency is “inactive”.

With `CCOC(=O)c1oc2ccc(S(=O)(=O)n3nc(-c4ccc(C)cc4)cc3N)cc2c1C` as the compound, how does the Potency read?
The Potency was inconclusive: 2.82 µM [inhibitor, full curve, poor fit].

For `COc1ccc(NC(=O)C2CCN(S(=O)(=O)c3cccc(-c4noc(C)n4)c3)CC2)cc1OC`, which Potency is on record?
Its Potency is inconclusive: 2.82 µM [inhibitor, full curve, poor fit].

For `CCN(CC)CCC(c1cc(OC)c(OC)c(OC)c1)c1c(OC)cc(OC)c2c(C)cc(=O)oc12` (configuration not stated), which Potency is on record?
The Potency was inconclusive: 28.2 µM [inhibitor, single point].

For `CCCCCOc1ccc(/C(C)=N/NC2=NCCN2)cc1`, which Potency is on record?
Its Potency is inconclusive: 25.1 µM [inhibitor, single point].

Which Potency does the source give for `Cc1cc(F)ccc1NC(=O)c1cc(S(=O)(=O)N2CCc3ccccc32)cn1C` here?
The Potency was inconclusive: 35.5 µM [inhibitor, single point].

For `CC(C)c1cccc(C(C)C)c1OC(=O)NC(=O)c1c(F)cccc1F`, which Potency is on record?
Its Potency is “inactive”.

With `CC(=O)c1c(C(C)=O)c(C)n(-c2nc(-c3ccccc3)c(C)s2)c1C` as the compound, how does the Potency read?
Its Potency is inconclusive: 11.2 µM [inhibitor, partial curve].

Which Potency does the source give for `Cc1ccc(C)c(NC(=O)CN2CCSc3ccc(S(=O)(=O)N4CCCC4)cc32)c1` here?
The Potency was “inactive”.

Which Potency does the source give for `COc1ccccc1N1CCN(c2ncnc3c2nnn3C)CC1` here?
Its Potency is “inactive”.

Which Potency does the source give for `Cc1ccc(S(=O)(=O)N2CCCCC2)cc1NC(=O)CSc1ccc2c(c1)OCCO2` here?
The Potency was “inactive”.

With `O=C(Nc1ccc(Br)cc1)NC1CCCCCCC1` as the compound, how does the Potency read?
The Potency was inconclusive: 22.4 µM [inhibitor, single point].

With `CCC(=O)c1cccc(-c2ccccc2)c1CC` as the compound, how does the Potency read?
Its Potency is “inactive”.

Which Potency does the source give for `CC(C)=NNc1nc2sc3c(c2c(=O)[nH]1)CC(C)(C)OC3` here?
Its Potency is inconclusive: 35.5 µM [inhibitor, single point].

For `Cc1ccccc1OCCn1cc(C(=S)N2CCN(C)CC2)c2ccccc21`, which Potency is on record?
The Potency was inconclusive: 22.4 µM [inhibitor, partial curve, poor fit].

With `CC(=O)c1c(C)oc2ccc(N(C(C)=O)S(=O)(=O)c3cccc4cccnc34)cc12` as the compound, how does the Potency read?
Its Potency is “inactive”.

With `COc1ccc([C@@H](NC(=O)OC(C)(C)C)C(=O)OC(C)(C)C)cc1` as the compound, how does the Potency read?
The Potency was “inactive”.

With `CC(C)NC(=O)N(C)C[C@H]1OCc2cnnn2CCCC(=O)N([C@H](C)CO)C[C@@H]1C` as the compound, how does the Potency read?
The Potency was inconclusive: 35.5 µM [inhibitor, single point].

For `O=C(/C(=N/O)c1ccccc1)c1ccccc1`, which Potency is on record?
The Potency was “inactive”.

With `CCc1nc2ccc(C(=O)Nc3ccc(OC)c(OC)c3)cn2c1N(C)Cc1cccs1` as the compound, how does the Potency read?
The Potency was inconclusive: 35.5 µM [inhibitor, single point].

With `OCc1cc(-c2ccccn2)no1` as the compound, how does the Potency read?
Its Potency is “inactive”.

Which Potency does the source give for `S=C(NCCCc1cnc[nH]1)NCCCN(Cc1ccccc1)c1ccc(Br)cn1` here?
Its Potency is inconclusive: 31.6 µM [inhibitor, single point].

With `N#Cc1ccc(-c2cccs2)nc1SCC(=O)Nc1cccc(C(F)(F)F)c1` as the compound, how does the Potency read?
Its Potency is inconclusive: 14.1 µM [inhibitor, partial curve, poor fit].

With `COc1ccc(C(=O)Nc2nc(CC(=O)NCCc3ccccc3OC)cs2)cc1` as the compound, how does the Potency read?
The Potency was inconclusive: 22.4 µM [inhibitor, single point].

Which Potency does the source give for `Cc1cc(SCC(=O)NCc2ccc(Cl)cc2)nc(=O)[nH]1` here?
The Potency was inconclusive: 35.5 µM [inhibitor, single point].

Which Potency does the source give for `Cc1ccnc(NC(=O)c2ccc(Cl)c(NC(=O)c3ccccc3C)c2)c1` here?
The Potency was inconclusive: 14.1 µM [inhibitor, partial curve].

With `CNC(=O)C1(C(F)(F)F)C/C(=C/CCO)CCCO1` (configuration not stated) as the compound, how does the Potency read?
Its Potency is “inactive”.

With `Cc1ccc(S(=O)(=O)N2CCC(C(=O)NCc3ccccc3Cl)CC2)cc1` as the compound, how does the Potency read?
Its Potency is inconclusive: 35.5 µM [inhibitor, single point].

For `CCN1CCN(Cc2c(O)ccc3c(C)c(-c4ccc(OC)cc4)c(=O)oc23)CC1`, which Potency is on record?
Its Potency is inconclusive: 35.5 µM [inhibitor, single point].

With `Cc1ccc(CNc2nc3cc(-c4ccccc4)sc3c(=O)n2C)c(C)c1` as the compound, how does the Potency read?
The Potency was inconclusive: 7.08 µM [inhibitor, partial curve].

For `COc1ccccc1C1c2c(-c3ccc(Cl)cc3)n[nH]c2C(=O)N1c1ccc(C)cc1` (configuration not stated), which Potency is on record?
The Potency was inconclusive: 14.1 µM [inhibitor, partial curve, poor fit].

Which Potency does the source give for `CC(C)C(=O)NC(=S)Nc1ccc(S(=O)(=O)Nc2ccccc2)cc1` here?
Its Potency is inconclusive: 5.01 µM [inhibitor, partial curve].

With `COc1ccc(C(C#N)CCC2OCCO2)cc1OC` (configuration not stated) as the compound, how does the Potency read?
The Potency was inconclusive: 5.62 µM [inhibitor, single point].

For `N=c1c2ccccc2nc2n1CCCCCCCCCCC2`, which Potency is on record?
Its Potency is inconclusive: 12.6 µM [inhibitor, single point].

With `COc1ccc(NC(=O)c2sc3nc4c(cc3c2N)CN(Cc2ccccc2)CC4)c(OC)c1` as the compound, how does the Potency read?
The Potency was “inactive”.

With `COc1ccc(NC(=O)Cn2c(SCc3ccc(C)cc3)nc3cccnc32)cc1OC` as the compound, how does the Potency read?
Its Potency is inconclusive: 8.91 µM [inhibitor, partial curve].

Which Potency does the source give for `O=C1Nc2ccccc2Oc2cc(Oc3ccccc3)ccc21` here?
The Potency was inconclusive: 35.5 µM [inhibitor, single point].

With `O=C(NNC(=O)C12CC3CC(CC(Cl)(C3)C1)C2)c1csc(N2CCOCC2)n1` as the compound, how does the Potency read?
Its Potency is “inactive”.

With `CCOC(=O)CC(=O)NC(C)(C)CCCCC(C)(C)NC(=O)CC(=O)OCC` as the compound, how does the Potency read?
Its Potency is “inactive”.
